Results taken from PubChem BioAssay AID2101 (National Center for Advancing Translational Sciences (NCATS), 2009).
Values joined by “and” are separate entries in the source; they are usually repeats but may differ in a detail not shown here. Identical values can stand only once. The campaign covered roughly 330,000 compounds. About 300 (0.091%) were called active. This list was built around the results that the source calls inconclusive (neither active nor inactive); the mix of calls is not that of the screen. Calls follow the shape of the dose curve; as a rule, active = well fitted inhibition curve with a large enough effect; inconclusive = small, poorly fitted or top-dose-only effect, or effect the other way, or another doubt; inactive = no such curve, though single readings can be large or run the other way. No potency is given beside an inconclusive call; the fits are too rough.

Target: Lysosomal acid glucosylceramidase (Homo sapiens) (UniProt P04062)
Assay: qHTS Assay for Inhibitors and Activators of N370S glucocerebrosidase as a Potential Chaperone Treatment of Gaucher Disease;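 as to activity change, negative = inhibition: 0% = full enzyme activity and -100% = no enzyme basal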
Conditions: N370S GC spleen homogenate, 4MU-glucoside fluorescence; activity change, negative = inhibition: at 59.4 µM (top of the series) unless noted
Potency is read from the fitted curve at half-maximal effect.

Structure (SMILES)	Potency	activity change, negative = inhibition
O=C(NC1CC1)c1cc(-c2ccco2)nc2ccccc12	inactive	–
COc1ccccc1Nc1ccc(N)cc1	inactive	–
O=c1c(Cc2ccc(F)cc2)c(O)ccn1CCc1ccccn1	inconclusive [inhibitor, single point]	–
CCN(CCN(C)C)C(=O)C1CCN(S(=O)(=O)c2c(C)noc2/C=C/c2ccccc2F)CC1	active: 7.08 µM	–
COc1ccc(S(=O)(=O)N2CCc3ccccc32)cc1C(=O)OCc1nnc(-c2ccccc2)o1	inconclusive [activator, partial curve]	–
CC(C)N(Cc1nc(-c2ccccc2)no1)C(=O)c1ccc(Cl)cc1	inconclusive [activator, partial curve]	–
O=C(CCCC(=O)n1cnc2ccccc21)n1cnc2ccccc21	inconclusive [activator, partial curve]	–
CC(OC(=O)c1ccccc1NCCO)C(=O)Nc1ccc(S(=O)(=O)N2CCOCC2)cc1 (stereo not drawn)	inconclusive [activator, partial curve]	–
O=C(NCCOc1nc(N2CCCCC2)nc(N2CCCCC2)n1)Nc1ccccc1	inconclusive [activator, partial curve]	–
CNc1nc2c3ccccc3n(C(C)=O)c2s1	inactive	–
O=S(=O)(Nc1ccc(-c2nc3cccnc3s2)cc1)c1cccs1	inconclusive [activator, full curve, poor fit]	–
O=c1oc2cc(O)ccc2cc1-c1ccc(F)cc1	inconclusive [activator, partial curve]	–
COc1ccc(-n2cc(CNCCc3nc(C)cc(C)n3)c(-c3ccccc3Cl)n2)cc1	–	inconclusive: 27% [activator]
O=C(Nc1cccnc1)c1sc(Nc2ccccc2F)nc1-c1ccccc1	inactive	–
O=C(Cc1ccccc1)Nc1ccc(NC(=O)c2ccco2)nc1	inactive	–
COc1ccc(-c2csc(N(CCCN(C)C)C(=O)c3ccc(C(C)(C)C)cc3)n2)cc1	inconclusive [inhibitor, single point]	–
Cc1ccccc1OCC(=O)OCC(=O)NCc1cccs1	inconclusive [inhibitor, single point]	–
O=C(Nc1c(F)cccc1F)c1ccc(-n2cncn2)nc1	inconclusive [activator, partial curve]	–
CCOc1cc(C)c(Cl)cc1S(=O)(=O)NCc1ccco1	inconclusive [inhibitor, single point]	–
CN(C)c1ccc(C2(O)C(=O)c3ccccc3C2=O)cc1	inconclusive [inhibitor, full curve, poor fit]	–
CCCCCCc1cc2cc(C(N)=O)c(=N)oc2cc1O	inconclusive [activator, partial curve]	–
Cc1c(NC(=O)c2cccnc2C(=O)O)cccc1C(=O)O	inconclusive [inhibitor, single point]	–
Cc1cccc(OCC(=O)NNc2c3ccccc3nc3ccccc23)c1	inconclusive [activator, single point]	–

Structure (SMILES)	Potency	activity change, negative = inhibition
CCCC(=O)N/C(N)=N/c1nc2ccccc2o1	inconclusive [inhibitor, full curve, poor fit]	–
O=C1N(Cc2ccccc2F)c2ccccc2C12OCCCO2	–	inconclusive: 26.8% [activator]
Cc1[nH]c2ccccc2c1/C=N/NS(=O)(=O)c1ccccc1	inconclusive [activator, single point]	–
Cc1ccc(S(=O)(=O)c2cc3c(=O)n4ccccc4nc3n(Cc3ccco3)c2=N)cc1C	inconclusive [inhibitor, single point]	–
Nc1nonc1-n1nnc(C(=O)N/N=C/c2ccncc2)c1-c1cccs1	inconclusive [inhibitor, partial curve]	–
CCOC(=O)c1c(N2C(=O)Nc3cc(Cl)c(Cl)cc3N2O)sc2c1CCCCC2	inconclusive [activator, single point]	–
Cc1ccnn1CC(=O)N/N=C/c1cn[nH]c1-c1ccc(F)cc1	inactive	–
O=C(NN1C(=O)C2C3C=CC([C@H]4CC34)[C@@H]2C1=O)c1ccc(Br)cc1 (stereo partly drawn)	–	inconclusive: 36% [activator]
CCCCc1cc(=O)oc2c(CN(CC)CC)c(O)c(Cl)cc12	inconclusive [activator, partial curve]	–
Cc1cc(C(F)F)n2ncc(C(=O)NCc3ccccc3)c2n1	inconclusive [activator, single point]	–
COC(=O)C1=C(C)N(Cc2ccccc2)C2=C3C(=O)CCCC3[C@@](O)(C(=O)OC)C(=O)N2C1c1ccccc1 (stereo partly drawn)	–	inactive: 6.3% [at 12.8 µM] and inactive: -3.74% [at 12.8 µM]
O=C(COc1ccccc1)NNc1c2ccccc2nc2ccccc12	inconclusive [activator, partial curve, poor fit]	–
Cc1cc(Cl)cc(Cl)c1OCCOCCN(C)C	inconclusive [activator, full curve, poor fit]	–
O=C(NC(Cc1ccccc1)C(=O)N1CCc2ccccc2C1)c1ccccc1 (stereo not drawn)	inconclusive [activator, single point]	–
CCN1CCc2c(sc3c2c(NCc2ccco2)nc2nnnn23)C1	inconclusive [activator, single point]	–
CCOC(=O)CSc1nc(COc2ccccc2)nc2ccccc12	inconclusive [activator, single point]	–
CC(C)CCNC(=O)CCSCCC(=O)NCCC(C)C	inconclusive [inhibitor, single point]	–
COc1cccc2c(N/N=C/c3ccccc3)cc(C)nc12	inconclusive [activator, partial curve]	–
O=C(CCS(=O)(=O)c1ccc(Br)s1)NCc1cccs1	inactive	–
CC(NC(=O)c1ccc(N2CCCC2)c([N+](=O)[O-])c1)c1ccc(S(N)(=O)=O)cc1 (stereo not drawn)	–	inconclusive: -35.1% [inhibitor]
N#CC1(NC(=O)Cn2ncc(Cl)c(Cl)c2=O)CCCCC1	inactive	–
Cc1ccc(NC(=O)CCc2c(C)nc3ncnn3c2C)nc1	inconclusive [inhibitor, single point]	–
COc1ccccc1CNC(=O)c1ccccc1N	inactive	–

Structure (SMILES)	Potency	activity change, negative = inhibition
CCN(CC)S(=O)(=O)c1cccc(-c2nnc(SCc3ncc(-c4ccccc4)o3)n2C)c1	inconclusive [activator, partial curve]	–
O=C(CN(c1ccc(Cl)cc1)S(=O)(=O)c1ccccc1)N/N=C/c1ccco1	inconclusive [activator, partial curve]	–
COc1ccccc1OCC(=O)Nc1ccc(NC(=O)COc2ccccc2OC)cc1	inconclusive [inhibitor, single point]	–
O=C(O)c1ccc(CNC(=O)c2ccccc2NC(=O)c2ccc([N+](=O)[O-])cc2)cc1	inconclusive [inhibitor, partial curve]	–
c1ccc2c(c1)ncn2Cc1nnc2sc(-c3ccc4c(c3)OCO4)nn12	inactive	–
Cc1c(C(=O)NC2CCN(Cc3ccccc3)C2)oc2c(Cl)cccc12 (stereo not drawn)	inactive	–
O=C(NCCCN1CCOCC1)c1ccc2c(c1)N(Cc1ccccc1)CCS2	inconclusive [activator, single point]	–
O=C(COc1ccc(/C=N/NC(=O)CSCc2ccc([N+](=O)[O-])cc2)cc1)NCc1ccco1	inconclusive [inhibitor, full curve, poor fit]	–
O=C(COC(=O)C1(c2ccc(F)cc2)CCCC1)N1CCc2ccccc21	inconclusive [activator, single point]	–
Cc1ccc(CN(C)C(=O)C2CCCN2C(=O)c2cccs2)o1 (stereo not drawn)	inactive	–
CCOc1ccc2c(c1)C(N(CCN1CCOCC1)C(=S)Nc1ccccc1OC)CC(C)(C)O2 (stereo not drawn)	inconclusive [inhibitor, single point]	–
Cc1ccc(S(=O)(=O)N2[C@@H](c3ccccc3F)C(C(=O)O)=CC[C@H]2c2ccc(Cl)c(Cl)c2)cc1	inconclusive [activator, single point]	–
COCCN(Cc1cc2ccc(C)cc2[nH]c1=O)S(=O)(=O)c1ccccc1	inconclusive [activator, partial curve]	–
CCN1CCN(C(=O)c2cc3c(s2)-c2c(C)cccc2OC3)CC1	inconclusive [activator, partial curve]	–
CO/N=C(\N)c1ccc([N+](=O)[O-])cc1	inconclusive [inhibitor, full curve, poor fit]	–
c1ccc(OCCOc2ncnc3sccc23)cc1	inactive	–
CN(CC(=O)NC1CCCc2ccccc21)S(=O)(=O)c1ccc2c(c1)c(=O)n(C)c(=O)n2C (stereo not drawn)	inactive	–
COc1ccc(/C=C2\SC(=S)N(C(C)C(=O)NC3C=CS(=O)(=O)C3)C2=O)cc1 (stereo not drawn)	inconclusive [inhibitor, partial curve]	–
CCc1ccc(C2C(C#N)=C(N)SC(N)=C2C#N)cc1	inactive	–
Cc1ccc(NC(=O)Nc2cccnc2)cc1Cl	inconclusive [inhibitor, partial curve]	–
O=C(CCCN1C(=O)/C(=C\c2cccc(Br)c2)SC1=S)Nc1cccnc1	inconclusive [inhibitor, single point]	–
CCCC(=O)NC(c1ccc(N(C)C)cc1)c1c(O)ccc2ccccc12 (stereo not drawn)	inconclusive [activator, single point]	–
